Measurements reported in the supplement of paper PMC8728848.
This is one part of the list.

How the values were obtained:
Assay in all cases: glycan array binding signal (z-score within array); higher = stronger binding
Conditions in all cases: glycan notation: IUPAC condensed, linker removed
[1] = biological target: Neu5Ac(a2-6)Gal(b1-4)Glc
Outline: (§1)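 The binding signal is a Z-score computed within each array and averaged over linkers. Arrays of the same protein sequence at different concentrations or buffers were also averaged together. Data originate from 3228 arrays in the Consortium for Functional Glycomics database, kept only where the protein sequence was available.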

[2] = biological target: Neu5Ac(a2-6)Gal(b1-4)GlcNAc
Outline: as §1

[3] = biological target: Neu5Ac(a2-6)Gal(b1-4)GlcNAc(b1-2)Man(a1-3)[Gal(b1-4)GlcNAc(b1-2)Man(a1-6)]Man(b1-4)GlcNAc(b1-4)GlcNAc
Outline: as §1

[4] = biological target: Neu5Ac(a2-6)Gal(b1-4)GlcNAc(b1-2)Man(a1-3)[GlcNAc(b1-2)Man(a1-6)]Man(b1-4)GlcNAc(b1-4)GlcNAc
Outline: as §1

[5] = biological target: Neu5Ac(a2-6)Gal(b1-4)GlcNAc(b1-2)Man(a1-3)[GlcNAc(b1-2)Man(b1-4)GlcNAc(b1-2)Man(a1-6)]Man(b1-4)GlcNAc(b1-4)GlcNAc
Outline: as §1

[6] = biological target: Neu5Ac(a2-6)Gal(b1-4)GlcNAc(b1-2)Man(a1-3)[Neu5Ac(a2-6)Gal(b1-4)GlcNAc(b1-2)Man(a1-6)]Man(b1-4)GlcNAc(b1-4)GlcNAc
Outline: as §1

[7] = biological target: Neu5Ac(a2-6)Gal(b1-4)GlcNAc(b1-2)Man(a1-6)[Gal(b1-4)GlcNAc(b1-2)Man(a1-3)]Man(b1-4)GlcNAc(b1-4)GlcNAc
Outline: as §1

[8] = biological target: Neu5Ac(a2-6)Gal(b1-4)GlcNAc(b1-2)Man(a1-6)[GlcNAc(b1-2)Man(a1-3)]Man(b1-4)GlcNAc(b1-4)GlcNAc
Outline: as §1

[9] = biological target: Neu5Ac(a2-6)Gal(b1-4)GlcNAc(b1-3)Gal(b1-4)GlcNAc
Outline: as §1

[10] = biological target: Neu5Ac(a2-6)Gal(b1-4)GlcNAc(b1-3)Gal(b1-4)[Fuc(a1-3)]GlcNAc(b1-3)Gal(b1-4)[Fuc(a1-3)]GlcNAc
Outline: as §1

[11] = biological target: Neu5Ac(a2-6)Gal(b1-4)GlcNAc6S
Outline: as §1

[12] = biological target: Neu5Ac(a2-6)GalNAc
Outline: as §1

[13] = biological target: Neu5Ac(a2-6)GalNAc(b1-4)GlcNAc
Outline: as §1

[14] = biological target: Neu5Ac(a2-8)Neu5Ac
Outline: as §1

[15] = biological target: Neu5Ac(a2-8)Neu5Ac(a2-3)Gal(b1-4)Glc
Outline: as §1

[16] = biological target: Neu5Ac(a2-8)Neu5Ac(a2-3)[GalNAc(b1-4)]Gal(b1-4)Glc
Outline: as §1

[17] = biological target: Neu5Ac(a2-8)Neu5Ac(a2-8)Neu5Ac
Outline: as §1

[18] = biological target: Neu5Ac(a2-8)Neu5Ac(a2-8)Neu5Ac(a2-3)Gal(b1-4)Glc
Outline: as §1

[19] = biological target: Neu5Ac(a2-8)Neu5Ac(a2-8)Neu5Ac(a2-3)[GalNAc(b1-4)]Gal(b1-4)Glc
Outline: as §1

[20] = biological target: Neu5Ac(a2-8)Neu5Ac(a2-8)Neu5Ac(a2-8)Neu5Ac(a2-3)[GalNAc(b1-4)]Gal(b1-4)Glc
Outline: as §1

[21] = biological target: Neu5Ac(b1-6)GalNAc
Outline: as §1

[22] = biological target: Neu5Ac(b2-6)Gal(b1-4)GlcNAc
Outline: as §1

[23] = biological target: Neu5Ac(b2-6)GalNAc
Outline: as §1

[24] = biological target: Neu5Ac9Ac(a2-6)Gal(b1-4)GlcNAc
Outline: as §1

[25] = biological target: Neu5Gc(a2-3)Gal(b1-3)GlcNAc
Outline: as §1

[26] = biological target: Neu5Gc(a2-3)Gal(b1-3)[Fuc(a1-4)]GlcNAc
Outline: as §1

[27] = biological target: Neu5Gc(a2-3)Gal(b1-4)Glc
Outline: as §1

[28] = biological target: Neu5Gc(a2-3)Gal(b1-4)GlcNAc
Outline: as §1

[29] = biological target: Neu5Gc(a2-3)Gal(b1-4)[Fuc(a1-3)]GlcNAc
Outline: as §1

[30] = biological target: Neu5Gc(a2-6)Gal(b1-4)GlcNAc
Outline: as §1

[31] = biological target: Neu5Gc(a2-6)GalNAc
Outline: as §1

[32] = biological target: Neu5Gc(b2-6)Gal(b1-4)GlcNAc
Outline: as §1

B1: L-Selectin (Mus musculus), P18337 (protein)
chain: MVFPWRCEGTYWGSRNILKLWVWTLLCCDFLIHHGTHCWTYHYSEKPMNWENARKFCKQNYTDLVAIQNKREIEYLENTLPKSPYYYWIGIRKIGKMWTWVGTNKTLTKEAENWGAGEPNNKKSKEDCVEIYIKRERDSGKWNDDACHKRKAALCYTASCQPGSCNGRGECVETINNHTCICDAGYYGPQCQYVVQCEPLEAPELGTMDCIHPLGNFSFQSKCAFNCSEGRELLGTAETQCGASGNWSSPEPICQVVQCEPLEAPELGTMDCIHPLGNFSFQSKCAFNCSEGRELLGTAETQCGASGNWSSPEPICQETNRSFSKIKEGDYNPLFIPVAVMVTAFSGLAFLIWLARRLKKGKKSQERMDDPY
B1 was tested, and the “glycan array binding signal (z-score)” value [1] was -0.214, the “glycan array binding signal (z-score)” value [2] was -0.213 and the “glycan array binding signal (z-score)” value [3] was -0.056. For the same binder, the “glycan array binding signal (z-score)” value [4] was 0.31, the “glycan array binding signal (z-score)” value [5] was -0.454 and the “glycan array binding signal (z-score)” value [6] was -0.115. For the same binder, the “glycan array binding signal (z-score)” value [7] was -0.363, the “glycan array binding signal (z-score)” value [8] was -0.236 and the “glycan array binding signal (z-score)” value [9] was -0.289. The “glycan array binding signal (z-score)” value [10] was -0.252, the “glycan array binding signal (z-score)” value [11] was 0.174 and the “glycan array binding signal (z-score)” value [12] was -0.12. The “glycan array binding signal (z-score)” value [13] was -0.452, the “glycan array binding signal (z-score)” value [14] was -0.017 and the “glycan array binding signal (z-score)” value [15] was -0.335. For the same binder, the “glycan array binding signal (z-score)” value [16] was -0.36, the “glycan array binding signal (z-score)” value [17] was -0.493 and the “glycan array binding signal (z-score)” value [18] was -0.536. The “glycan array binding signal (z-score)” value [19] was -0.235, the “glycan array binding signal (z-score)” value [20] was -0.554 and the “glycan array binding signal (z-score)” value [21] was -0.43. For the same binder, the “glycan array binding signal (z-score)” value [22] was -0.348, the “glycan array binding signal (z-score)” value [23] was -0.495 and the “glycan array binding signal (z-score)” value [24] was -0.195. For the same binder, the “glycan array binding signal (z-score)” value [25] was -0.325, the “glycan array binding signal (z-score)” value [26] was 2.91 and the “glycan array binding signal (z-score)” value [27] was -0.088. The “glycan array binding signal (z-score)” value [28] was 0.201, the “glycan array binding signal (z-score)” value [29] was 0.549 and the “glycan array binding signal (z-score)” value [30] was -0.316. For the same binder, the “glycan array binding signal (z-score)” value [31] was -0.383 and the “glycan array binding signal (z-score)” value [32] was -0.276.
